Source: paper PMC5700166
The entries are a selection whose mix differs from that of the whole data set. The list includes weakly bound sequences.

Columns and labels:
Assay in all cases: protein-binding microarray (PBM)
Details in all cases: PBM: ~300 nM protein, 6 mM HEPES pH 7.8, 80 mM KCl, 0.5 mM EDTA, 0.5 mM EGTA, 6% glycerol, 35 ng/ul poly-dIdC, 1% milk, 1 h, room temperature; Ap Aiptasia and Nv Nematostella (sea anemones) / Co Capsaspora / Aq Amphimedon (sponge) / Dm Drosophila / Hu human; RHD is the Rel homology domain; high values mean tight binding; most listed sequences are background and not binding sites; double strand, one strand shown
[1] = molecular target: T1, GST-Ap-NF-kB RHD (UniProt A0A913YAJ5)
T1 sequence: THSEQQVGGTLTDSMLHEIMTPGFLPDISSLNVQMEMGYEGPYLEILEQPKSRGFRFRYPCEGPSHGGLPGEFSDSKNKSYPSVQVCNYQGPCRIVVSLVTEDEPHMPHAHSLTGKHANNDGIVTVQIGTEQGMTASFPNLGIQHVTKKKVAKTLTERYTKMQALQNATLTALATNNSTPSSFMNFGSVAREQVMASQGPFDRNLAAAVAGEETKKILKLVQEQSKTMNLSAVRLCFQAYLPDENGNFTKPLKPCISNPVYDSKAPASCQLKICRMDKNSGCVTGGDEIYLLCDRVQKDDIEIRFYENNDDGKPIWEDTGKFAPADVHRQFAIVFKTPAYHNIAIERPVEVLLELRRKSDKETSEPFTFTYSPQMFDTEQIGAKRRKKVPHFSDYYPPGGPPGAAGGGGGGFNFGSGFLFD

[2] = molecular target: T2, GST-Nv-NF-kB (Cys allele) (UniProt E5G601)
T2 sequence: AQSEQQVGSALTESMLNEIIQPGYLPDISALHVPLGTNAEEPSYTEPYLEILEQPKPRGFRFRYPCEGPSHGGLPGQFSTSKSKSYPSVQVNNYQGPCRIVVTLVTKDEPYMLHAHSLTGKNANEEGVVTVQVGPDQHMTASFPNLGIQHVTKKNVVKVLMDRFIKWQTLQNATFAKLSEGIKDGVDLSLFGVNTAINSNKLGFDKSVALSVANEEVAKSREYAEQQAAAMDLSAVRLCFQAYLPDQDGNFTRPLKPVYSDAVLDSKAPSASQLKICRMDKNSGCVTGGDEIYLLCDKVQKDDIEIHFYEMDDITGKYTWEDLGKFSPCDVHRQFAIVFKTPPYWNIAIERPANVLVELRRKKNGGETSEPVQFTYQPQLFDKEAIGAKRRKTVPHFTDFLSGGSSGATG

[3] = molecular target: T3, GST-Co-NF-kB (UniProt F1ARL5)
T3 sequence: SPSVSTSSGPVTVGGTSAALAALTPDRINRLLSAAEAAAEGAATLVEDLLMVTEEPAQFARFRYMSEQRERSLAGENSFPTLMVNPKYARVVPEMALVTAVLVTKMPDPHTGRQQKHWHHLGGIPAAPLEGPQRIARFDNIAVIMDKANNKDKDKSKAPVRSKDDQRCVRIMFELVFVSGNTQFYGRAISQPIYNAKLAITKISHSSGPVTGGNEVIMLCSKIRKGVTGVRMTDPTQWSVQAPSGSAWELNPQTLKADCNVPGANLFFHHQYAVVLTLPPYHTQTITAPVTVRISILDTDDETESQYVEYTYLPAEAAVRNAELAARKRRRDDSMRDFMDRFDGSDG

[4] = molecular target: T4, GST-Dm-Relish (UniProt Q94527)
T4 sequence: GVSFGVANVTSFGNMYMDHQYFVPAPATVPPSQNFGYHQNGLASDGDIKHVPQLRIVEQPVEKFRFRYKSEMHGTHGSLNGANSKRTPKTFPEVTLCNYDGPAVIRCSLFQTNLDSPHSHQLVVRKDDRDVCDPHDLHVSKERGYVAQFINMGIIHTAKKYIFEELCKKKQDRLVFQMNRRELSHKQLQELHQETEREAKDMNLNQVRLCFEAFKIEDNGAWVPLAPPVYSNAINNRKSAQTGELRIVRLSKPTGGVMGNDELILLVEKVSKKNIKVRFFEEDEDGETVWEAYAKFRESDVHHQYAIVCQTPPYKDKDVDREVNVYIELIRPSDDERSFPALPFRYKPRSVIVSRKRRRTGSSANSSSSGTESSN

[5] = molecular target: T5, GST-Aq-NF-kB (UniProt A9Y5G7)
T5 sequence: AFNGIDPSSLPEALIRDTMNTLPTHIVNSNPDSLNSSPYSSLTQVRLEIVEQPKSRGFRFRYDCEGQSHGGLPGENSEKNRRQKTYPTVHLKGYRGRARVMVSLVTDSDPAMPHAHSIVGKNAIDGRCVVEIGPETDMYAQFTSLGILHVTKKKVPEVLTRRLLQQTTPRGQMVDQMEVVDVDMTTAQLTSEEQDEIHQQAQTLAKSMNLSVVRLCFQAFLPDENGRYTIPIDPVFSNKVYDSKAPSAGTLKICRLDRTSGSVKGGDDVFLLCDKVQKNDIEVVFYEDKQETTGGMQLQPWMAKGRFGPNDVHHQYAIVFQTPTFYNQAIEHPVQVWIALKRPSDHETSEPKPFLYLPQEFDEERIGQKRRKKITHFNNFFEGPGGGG

CCGATTAACATCAATCCTATCGATGATGTTAATCGGGTCTTGATTCGCTTGACGCTGCTG
binding signal [1]: -0.581 z-score | binding signal [2]: -0.726 z-score | binding signal [3]: -0.302 z-score | binding signal [4]: -0.555 z-score | binding signal [5]: -0.539 z-score

CCGATTAACATCAGCGTGACTTTTGATGTTAATCGGGTCTTGATTCGCTTGACGCTGCTG
binding signal [1]: -0.19 z-score | binding signal [2]: -0.326 z-score | binding signal [3]: 0.234 z-score | binding signal [4]: 1.47 z-score | binding signal [5]: -0.389 z-score

CCGATTAACATCATGGTTCAATTTGATGTTAATCGGGTCTTGATTCGCTTGACGCTGCTG
binding signal [1]: -0.266 z-score | binding signal [2]: -0.324 z-score | binding signal [3]: -0.0646 z-score | binding signal [4]: -0.368 z-score | binding signal [5]: -0.32 z-score

CCGATTAACATCAACGAAAATGGTGATGTTAATCGGGTCTTGATTCGCTTGACGCTGCTG
binding signal [1]: -0.207 z-score | binding signal [2]: 0.338 z-score | binding signal [3]: 0.656 z-score | binding signal [4]: 0.29 z-score | binding signal [5]: 0.0637 z-score

CCGATTAACATCATCCGATAAGTTGATGTTAATCGGGTCTTGATTCGCTTGACGCTGCTG
binding signal [1]: -0.0396 z-score | binding signal [2]: -0.365 z-score | binding signal [3]: -0.186 z-score | binding signal [4]: -0.352 z-score | binding signal [5]: -0.128 z-score

CCGATTAACATCACCCAAAAGCATGATGTTAATCGGGTCTTGATTCGCTTGACGCTGCTG
binding signal [1]: 0.0226 z-score | binding signal [2]: -0.0321 z-score | binding signal [3]: 0.249 z-score | binding signal [4]: 0.604 z-score | binding signal [5]: 0.382 z-score

CCGATTAACATCACAATACACGCTGATGTTAATCGGGTCTTGATTCGCTTGACGCTGCTG
binding signal [1]: -0.207 z-score | binding signal [2]: 0.18 z-score | binding signal [3]: 0.728 z-score | binding signal [4]: 1.05 z-score | binding signal [5]: 0.0152 z-score

CCGATTAACATCAGTAAACTCCATGATGTTAATCGGGTCTTGATTCGCTTGACGCTGCTG
binding signal [1]: -0.136 z-score | binding signal [2]: -0.839 z-score | binding signal [3]: -0.482 z-score | binding signal [4]: 1.1 z-score | binding signal [5]: -0.0191 z-score

CCGATTAACATCATCTACAACAGTGATGTTAATCGGGTCTTGATTCGCTTGACGCTGCTG
binding signal [1]: 0.0253 z-score | binding signal [2]: 0.404 z-score | binding signal [3]: 0.261 z-score | binding signal [4]: 0.298 z-score | binding signal [5]: -0.21 z-score

CCGATTAACATCATCTGTTGTTTTGATGTTAATCGGGTCTTGATTCGCTTGACGCTGCTG
binding signal [1]: -0.0683 z-score | binding signal [2]: -0.3 z-score | binding signal [3]: 0.125 z-score | binding signal [4]: 0.271 z-score | binding signal [5]: -0.33 z-score

CCGATTAACATCAGCGTTGGATGTGATGTTAATCGGGTCTTGATTCGCTTGACGCTGCTG
binding signal [1]: 0.21 z-score | binding signal [2]: -0.813 z-score | binding signal [3]: -0.409 z-score | binding signal [4]: 0.0133 z-score | binding signal [5]: -0.183 z-score

CCGATTAACATCACGCAGTCAGATGATGTTAATCGGGTCTTGATTCGCTTGACGCTGCTG
binding signal [1]: -0.0846 z-score | binding signal [2]: -0.102 z-score | binding signal [3]: -0.938 z-score | binding signal [4]: 0.162 z-score | binding signal [5]: -0.461 z-score

CCGATTAACATCAAAGTTTAGTATGATGTTAATCGGGTCTTGATTCGCTTGACGCTGCTG
binding signal [1]: -0.824 z-score | binding signal [2]: 0.0213 z-score | binding signal [3]: -0.312 z-score | binding signal [4]: -0.701 z-score | binding signal [5]: -0.693 z-score

CCGATTAACATCAAACCATGCGGTGATGTTAATCGGGTCTTGATTCGCTTGACGCTGCTG
binding signal [1]: 0.121 z-score | binding signal [2]: -0.593 z-score | binding signal [3]: -0.15 z-score | binding signal [4]: 0.513 z-score | binding signal [5]: 0.298 z-score

CCGATTAACATCAGCCTGCCCACTGATGTTAATCGGGTCTTGATTCGCTTGACGCTGCTG
binding signal [1]: -0.0421 z-score | binding signal [2]: -0.357 z-score | binding signal [3]: -0.407 z-score | binding signal [4]: -0.984 z-score | binding signal [5]: -0.287 z-score

CCGATTAACATCAAGTATACACTTGATGTTAATCGGGTCTTGATTCGCTTGACGCTGCTG
binding signal [1]: -1.7 z-score | binding signal [2]: -0.118 z-score | binding signal [3]: -1.41 z-score | binding signal [4]: -0.173 z-score | binding signal [5]: -0.532 z-score

CCGATTAACATCACGGGCATGTATGATGTTAATCGGGTCTTGATTCGCTTGACGCTGCTG
binding signal [1]: -0.196 z-score | binding signal [2]: -0.131 z-score | binding signal [3]: -0.292 z-score | binding signal [4]: 0.139 z-score | binding signal [5]: -0.0637 z-score

CCGATTAACATCAATATGTTTTATGATGTTAATCGGGTCTTGATTCGCTTGACGCTGCTG
binding signal [1]: -0.801 z-score | binding signal [2]: -0.194 z-score | binding signal [3]: 0.351 z-score | binding signal [4]: 0.452 z-score | binding signal [5]: -0.265 z-score

CCGATTAACATCACGAATTTCCATGATGTTAATCGGGTCTTGATTCGCTTGACGCTGCTG
binding signal [1]: -0.286 z-score | binding signal [2]: 0.213 z-score | binding signal [3]: 0.647 z-score | binding signal [4]: 0.479 z-score | binding signal [5]: 0.00157 z-score

CCGATTAACATCACATCTGGTCGTGATGTTAATCGGGTCTTGATTCGCTTGACGCTGCTG
binding signal [1]: -0.604 z-score | binding signal [2]: 0.0863 z-score | binding signal [3]: 0.346 z-score | binding signal [4]: 0.638 z-score | binding signal [5]: -0.354 z-score

CCGATTAACATCAGGAAATGCCATGATGTTAATCGGGTCTTGATTCGCTTGACGCTGCTG
binding signal [1]: -0.133 z-score | binding signal [2]: -0.164 z-score | binding signal [3]: -0.264 z-score | binding signal [4]: -0.0109 z-score | binding signal [5]: 0.921 z-score

CCGATTAACATCAGTGCAGAACCTGATGTTAATCGGGTCTTGATTCGCTTGACGCTGCTG
binding signal [1]: -0.165 z-score | binding signal [2]: -0.337 z-score | binding signal [3]: -0.855 z-score | binding signal [4]: -0.121 z-score | binding signal [5]: -0.266 z-score

CCGATTAACATCAGAGGGCAAGATGATGTTAATCGGGTCTTGATTCGCTTGACGCTGCTG
binding signal [1]: 0.0683 z-score | binding signal [2]: -0.0763 z-score | binding signal [3]: 0.562 z-score | binding signal [4]: -0.892 z-score | binding signal [5]: 0.199 z-score

CCGATTAACATCACGCTAATGACTGATGTTAATCGGGTCTTGATTCGCTTGACGCTGCTG
binding signal [1]: 0.262 z-score | binding signal [2]: -0.444 z-score | binding signal [3]: -0.248 z-score | binding signal [4]: 0.0568 z-score | binding signal [5]: -0.47 z-score

CCGATTAACATCACAACTCACATTGATGTTAATCGGGTCTTGATTCGCTTGACGCTGCTG
binding signal [1]: -0.164 z-score | binding signal [2]: -0.576 z-score | binding signal [3]: 0.296 z-score | binding signal [4]: 0.0886 z-score | binding signal [5]: -0.331 z-score

CCGATTAACATCAAACGAGACTATGATGTTAATCGGGTCTTGATTCGCTTGACGCTGCTG
binding signal [1]: -0.591 z-score | binding signal [2]: 0.498 z-score | binding signal [3]: 0.146 z-score | binding signal [4]: -0.635 z-score | binding signal [5]: -0.499 z-score

CCGATTAACATCAACTGCCGTCGTGATGTTAATCGGGTCTTGATTCGCTTGACGCTGCTG
binding signal [1]: 0.161 z-score | binding signal [2]: -0.128 z-score | binding signal [3]: -0.361 z-score | binding signal [4]: -0.266 z-score | binding signal [5]: -0.23 z-score

CCGATTAACATCACGATAGGCCGTGATGTTAATCGGGTCTTGATTCGCTTGACGCTGCTG
binding signal [1]: -0.962 z-score | binding signal [2]: -0.212 z-score | binding signal [3]: -1.11 z-score | binding signal [4]: 0.124 z-score | binding signal [5]: -0.716 z-score
